# Data published in PubChem BioAssay AID651820 (National Center for Advancing Translational Sciences (NCATS), 2012).
# Among all 340,000 compounds or so, about 12,000 (3.5%) were called active. The inconclusive results got no clear call from the source; some entries with a clear call stand among them for comparison. Calls come from the whole dose curve; as a rule, active = well fitted inhibition curve with a large enough effect; inconclusive = small, poorly fitted or top-dose-only effect, or another doubt; inactive = no such curve, though single readings can be large or run the other way. Potencies of inconclusive entries are left out as doubtful fits.
# Experiment: qHTS Assay for Inhibitors of Hepatitis C Virus (HCV)
# Settings: Huh7.5.1 HCVcc-Cre (HCVcc is cell-culture hepatitis C virus) infection, luciferase reporter, 44 h; activity change, negative = inhibition: at 41.8 µM (top of the series)
# Summary of the method: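 Antiviral activity was scored by luciferase reporter output from cells infected with HCVcc-Cre (~0.5 moi) in presence of compound, 44 h infection period, cells seeded 1,000/well 4 h prior.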
# % is set by controls: 0 for no effect and ±100 for the full control effect; potency is the fitted concentration of half-maximal effect; tags give direction and shape of the fitted curve.
SMILES,Potency,"activity change, negative = inhibition"
CC(C)C1=CC(=Nc2ccc(S(N)(=O)=O)cc2)C=C(C(C)C)C1=O,"inconclusive [inhibitor, single point]",
Cc1ccc(C(=O)c2ccccc2C(=O)OCC(=O)N2CC(C)CC(C)C2)cc1 (stereo unspecified),,inactive: 13.3%
c1ccc2c(c1)nnn2-c1ncnc2sccc12,"inconclusive [inhibitor, single point]",
N=C1SCC(=O)N1c1ccccc1Cl,,inactive: 12.8%
Cc1cc(C)cc(-n2ncc3c2CCCC3NC(=O)CCN2Cc3ccccc3C2=O)c1 (stereo unspecified),"inconclusive [inhibitor, full curve, poor fit]",
CCn1nc(C)c(C(=O)Nc2cc(Oc3cc(C)cc(C)c3)cc([N+](=O)[O-])c2)c1C,"inconclusive [inhibitor, single point]",
COc1ccc(CCn2nnnc2C(c2ccc(Cl)cc2)N2CCN(C)CC2)cc1OC (stereo unspecified),"inconclusive [inhibitor, single point]",
FC(F)(F)c1cc(-c2ccccc2)nc(NCc2cccs2)n1,"inconclusive [inhibitor, single point]",
COc1ccc(CCNC(=O)c2cc(S(=O)(=O)N3CCOCC3)cn2C)cc1OC,,inactive: -17.2%
Cc1ccc(OCC(=O)N2CCN(Cc3ccc([N+](=O)[O-])cc3)CC2)cc1,"inconclusive [inhibitor, single point]",
COc1ccc(-c2nn(-c3ccccc3)cc2C(=O)N(C)C)cc1,,inactive: -16.8%
COc1nc(NCc2cccnc2)nc(OC)n1,,inactive: 11.2%
COc1ccc(N2CCN(C(=O)CCCN3C(=O)c4cccc5cccc(c45)C3=O)CC2)cc1,"inconclusive [inhibitor, single point]",
C[C@@H]1CCCCCCCCC(=O)OCCN(C(=O)OC(C)(C)C)[C@H](C)CCCCCCCCC(=O)OCCN(C(=O)OC(C)(C)C)[C@H](C)CCCCCCCCC(=O)OCCN1C(=O)OC(C)(C)C,,inactive: 14.6%
CCOc1ccc(CCNC(=O)c2cccnc2N2CCCC2)cc1OCC,"inconclusive [inhibitor, single point]",
Cc1ccc(NC(=O)CN(C)C(=O)c2ccc(COc3ccccc3)cc2)cc1,"inconclusive [inhibitor, partial curve]",
CN(Cc1ccccc1)c1nc2c(c(=O)n(C)c(=O)n2C)n1CCCc1ccccc1,"inconclusive [inhibitor, single point]",
Cc1ccc(OCCCCCN2CCOCC2)c(Cl)c1,"inconclusive [inhibitor, single point]",

SMILES,Potency,"activity change, negative = inhibition"
O=C(OCCOc1cccc(Cl)c1)c1ccc2ncsc2c1,,inactive: -19.9%
CNc1cc(CSC)nc(SCc2ccc(Cl)c(Cl)c2)n1,"inconclusive [inhibitor, single point]",
Cc1ccc(NC(=O)C2CCN(S(=O)(=O)c3ccc(N4CCCC4=O)cc3)CC2)cc1Cl,active: 10 µM,
O=C(c1ccc(OCc2cn3ccccc3n2)cc1)N1CCN(S(=O)(=O)c2ccccc2F)CC1,"inconclusive [inhibitor, partial curve]",
CC(C)NC(=O)c1cc2ccccc2o1,,inactive: 0.293%
CCCC(=O)Nc1ccccc1-c1nnn(CC(=O)Nc2ccc(OCC)cc2)n1,"inconclusive [inhibitor, partial curve]",
CN=Cc1c(NC)nc2c(C)cccn2c1=O,,inactive: 23.1%
COc1ccccc1CNC(=O)C1CCN(Cc2nc(-c3cccc(Cl)c3)oc2C)CC1,"inconclusive [inhibitor, single point]",
COC(=O)[C@]1(C)N[C@H](CN(C)C(=O)Nc2ccc(C)cc2)[C@@H]2C(=O)N(C)C(=O)[C@@H]21,active: 1 µM,
Cc1ccc(C(=O)Nc2cccc(NC(=O)c3cccnc3)c2)cc1,"inconclusive [inhibitor, partial curve]",
O=C(N/N=C/c1ccc[nH]1)c1cc(-c2cccs2)nc2ccccc12,"inconclusive [inhibitor, partial curve, poor fit]",
COc1ccc(CN2CC(C(=O)NCc3ccc4c(c3)OCO4)CC2=O)cc1 (stereo unspecified),,inactive: -14.6%
CNC(=S)NC1(C)CCS(=O)(=O)C1 (stereo unspecified),,inactive: 0.755%
CSc1cc(-c2ccccc2)n(Cc2ccccc2Cl)c(=O)c1C#N,"inconclusive [inhibitor, single point]",
Cc1ccc(C2C3=C(CCCC3=O)N=C3c4ccccc4C(=O)C32)cc1 (stereo unspecified),"inconclusive [inhibitor, partial curve]",
CC12CCC(c3c(CO)nn(-c4ccccc4)c31)C2(C)C (stereo unspecified),,inactive: 7.21%
CN(c1ccccc1)c1ccc(/C=N/N2CCOCC2)cc1,,inactive: 12.1%
CCOc1cccc(NC(=O)C2CCCN(S(=O)(=O)c3ccc(OC)cc3)C2)c1 (stereo unspecified),"inconclusive [inhibitor, single point]",
